# Assay results: PubChem BioAssay AID624171 (National Center for Advancing Translational Sciences (NCATS), 2012)
# About 1,200 (0.29%) of roughly 410,000 compounds were called active. Inconclusive results, whose numbers are uncertain, are shown with a selection of clear calls. Calls come from the whole dose curve; as a rule, active = well fitted activation curve with a large enough effect; inconclusive = small, poorly fitted or top-dose-only effect; inactive = flat fitted curve, though single readings scatter. Potencies of inconclusive entries are doubtful fits and often do not repeat.
# Test: qHTS of Nrf2 Activators; note: nearly all actives have a fitted effect of over 65% in size; for activation: % of control where 0% means no effect
# Conditions: AREc32 ARE-luciferase reporter (MCF7-derived line), luminescence, 24 h; activation: at 46.1 µM (top of the series)
# How it was run: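 AREc32 cells carrying an ARE-driven firefly luciferase reporter were seeded at 1000 cells/well in OPTI-MEM with 5% FBS, then exposed to compound for 24 hr at 37 deg C. Luminescence was read with Steady-Glo after 30 min at RT.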
# Potency is the fitted concentration of half-maximal effect; tags give direction and shape of the fitted curve.
SMILES,Potency,activation
CCc1ccc(O)c(N=Cc2cccc(C)c2O)c1,"inconclusive: 22.4 µM [activator, single point]",–
CCCSCCCNC(=O)CN1C(=O)CCn2nc(-c3cn(C)c4ccccc34)cc21,–,inactive: 0.731%
CCS(=O)(=O)c1nc(S(=O)(=O)c2ccc(C)cc2)c(N2CCOCC2)s1,"inconclusive: 14.1 µM [activator, partial curve, poor fit]",–
O=C(C[n+]1cccc(C(=O)N/N=C/c2cccc([N+](=O)[O-])c2)c1)c1ccccc1,"inconclusive: 15.8 µM [activator, partial curve, poor fit]",–
O=C1/C(=C/c2cccs2)COc2ccccc21,"inconclusive: 11.2 µM [activator, partial curve, poor fit]",–
COc1ccc2ccc(O)c(CN3CCN(S(=O)(=O)c4cc([N+](=O)[O-])ccc4C)CC3)c2c1,"inconclusive: 25.1 µM [activator, single point]",–
COc1ccccc1NC(c1cccnc1)c1ccc2cccnc2c1O (stereo not drawn),"inconclusive: 31.6 µM [activator, single point]",–
Cn1cc([N+](=O)[O-])c(C(=O)Nc2ccc(-c3nc4ccccc4[nH]3)cc2)n1,"inconclusive: 6.31 µM [activator, partial curve, poor fit]",–
CC(C)CCn1c(O)c(N=Nc2ccccn2)c2ccccc21,"inconclusive: 3.16 µM [activator, full curve, poor fit]",–
COc1ccc(NC(=O)C(C)N2c3cccc4cccc(c34)S2(=O)=O)cc1 (stereo not drawn),–,inactive: 0.195%
O=[N+]([O-])c1ccc(/C=N/Nc2ncccc2[N+](=O)[O-])s1,"inconclusive: 2.51 µM [activator, full curve, poor fit]",–
CCOc1ccc(N2CC(C(=O)Nc3ccccn3)CC2=O)cc1 (stereo not drawn),–,inactive: -0.836%
Cc1ccc(C=Cc2ccccn2)cc1,"inconclusive: 20 µM [activator, partial curve, poor fit]",–
CSc1nc(/C=C2\C=Nc3ccccc32)c(O)n1C,"inconclusive: 14.1 µM [activator, partial curve, poor fit]",–
N#C/C(=C/c1ccc(-c2ccccc2[N+](=O)[O-])o1)C(N)=O,"inconclusive: 15.8 µM [activator, partial curve, poor fit]",–
Cc1ccccc1Cc1c(C)nc2c(C(=O)N3CCN(Cc4ccc5c(c4)OCO5)CC3)cnn2c1C,–,inactive: 0.246%
COc1ccccc1Oc1nnnn1-c1ccc(C(N)=O)cc1,"inconclusive: 22.4 µM [activator, single point]",–
Cc1ccc2nc(NC(=S)NC(=O)c3ccco3)sc2c1,"inconclusive: 2.51 µM [activator, full curve, poor fit]",–
O=C(c1ccccc1)C(Nc1cccc([N+](=O)[O-])c1)c1ccccc1 (stereo not drawn),"inconclusive: 5.62 µM [activator, partial curve, poor fit]",–
O=C(C1=NNCC1c1ccccc1)C1CO1 (stereo not drawn),"inconclusive: 22.4 µM [activator, single point]",–
CS(=O)(=O)c1nc(S(=O)(=O)c2ccc(Cl)cc2)c(N2CCCCC2)s1,"inconclusive: 6.31 µM [activator, partial curve, poor fit]",–
CCc1cccc(NC(=O)c2sc3nc4n(c(=O)c3c2C)CCC4)c1,–,inactive: 2.26%
COC(=O)C(NC(=O)c1ccccc1Cl)(Nc1ncc(S(=O)(=O)c2ccc([N+](=O)[O-])cc2)s1)C(F)(F)F (stereo not drawn),–,inactive: 21.6%

SMILES,Potency,activation
Cc1ccc(C(=O)Nc2cc3cc(Cl)ccc3oc2=O)cc1,"inconclusive: 15.8 µM [activator, single point]",–
CN(C)c1ccc(/C=N/NC(=S)NCc2ccccc2)cc1,–,inactive: 3.72%
COc1cccc(NC(=O)CSc2c(C)cnc3c2c(=O)n(C)c(=O)n3C)c1,"inconclusive: 14.1 µM [activator, single point]",–
Cc1ccc(N(C(=O)Cc2cccs2)C(C(=O)NC2CCCCC2)c2ccccn2)cc1C (stereo not drawn),–,inactive: -0.105%
CCN(CC)C(=O)CSc1nc(N)c(C#N)c(-c2cccs2)c1C#N,–,inactive: 3.52%
Cn1nc([N+](=O)[O-])c(C(C#N)c2ccccn2)c(Cl)c1=O (stereo not drawn),"inconclusive: 11.2 µM [activator, partial curve]",–
Cc1cc(C)cc(S(=O)(=O)c2cnc3ccccc3n2)c1,active: 22.4 µM,–
COc1ccc(Cl)cc1NC(=O)c1cc2ccccn2n1,active: 5.62 µM,–
Cc1noc2ncnc(Sc3c(Cl)cccc3Cl)c12,"inconclusive: 22.4 µM [activator, single point]",–
COc1ccc(NC(=O)CCOc2ccccc2F)cc1S(=O)(=O)N1CCCCC1,–,inactive: 0.0583%
CCOC(=O)/C(=C\c1ccc(OC(F)F)cc1)C1=Nn2c(nnc2-c2ccc(Cl)cc2)SC1,"inconclusive: 5.62 µM [activator, single point]",–
CCCN1CCc2c(sc(NC(=O)CCS(=O)(=O)c3ccccc3)c2C(N)=O)C1,"inconclusive: 22.4 µM [activator, single point]",–
CCOC(=O)Cc1csc(NC(=O)/C=C\c2ccccc2Cl)n1,"inconclusive: 12.6 µM [activator, partial curve]",–
CSc1nnc(NC(=O)c2nc(S(=O)(=O)Cc3ccc(C)cc3)ncc2Cl)s1,"inconclusive: 15.8 µM [activator, single point]",–
COc1ccccc1OCCC(=O)OCC(=O)c1[nH]c(C)c(C(C)=O)c1C,"inconclusive: 28.2 µM [activator, single point]",–
Nc1c(Cl)cc(C2=NCCn3c2c2ccc([N+](=O)[O-])cc2[n+]3[O-])cc1Cl,"inconclusive: 15.8 µM [activator, single point]",–
Cc1ccccc1OCC(=O)N(Cc1nnc(-c2ccc(Cl)cc2)o1)C(C)C,"inconclusive: 25.1 µM [activator, single point]",–
CCC1=NN2C(=N)/C(=C\c3ccc(SCc4ccco4)o3)C(=O)N=C2S1,"inconclusive: 28.2 µM [activator, single point]",–
COc1ccccc1-c1cc(C(F)(F)F)nc(S(=O)(=O)CCCC(=O)NC(C)C)n1,"inconclusive: 5.62 µM [activator, single point]",–
O=C1/C(=C/c2cccs2)CCC/C1=C\c1cccs1,"inconclusive: 0.562 µM [activator, full curve, poor fit]",–
N#Cc1c(SCC(N)=O)nsc1SCc1ccc(Cl)cc1,"inconclusive: 17.8 µM [activator, single point]",–
O=[N+]([O-])c1ccc(Sc2cccc3cccnc23)c([N+](=O)[O-])c1,"inconclusive: 4.47 µM [activator, single point]",–
CCOc1ccc(CN2C(=O)c3ccccc3C2C(=O)NC(C)CC)cc1OC (stereo not drawn),–,inactive: -0.677%

SMILES,Potency,activation
O=C(CSc1cccc2cccnc12)Nc1ccc(S(=O)(=O)N2CCOCC2)cc1,"inconclusive: 35.5 µM [activator, partial curve, poor fit]",–
COc1ccc2c(c1)cc1c(=O)n(CC(=O)NC(C)C)nc(C)n12,–,inactive: -0.653%
Cc1ccc(NC(=O)C(=Cc2ccc(C(=O)O)cc2)C(=O)Nc2ccc(C)cc2C)c(C)c1,"inconclusive: 0.562 µM [activator, full curve, poor fit]",–
O=C(NC12CC3CC(CC(C3)C1)C2)c1ccc(Br)o1,–,inactive: 18.7%
O=C(c1ccc(Cl)cc1)C(CN1CCCCC1)c1ccccc1 (stereo not drawn),"inconclusive: 4.47 µM [activator, single point]",–
Cc1cccc2sc(NC(=O)CSc3nc4ccccc4o3)nc12,"inconclusive: 6.31 µM [activator, partial curve]",–
CCOc1ncccc1C(=O)Nc1cc(S(=O)(=O)N2CCOCC2)ccc1OCC(F)(F)F,–,inactive: 1.48%
CCOCCCNC(=O)c1cc(Sc2cccc(Cl)c2)nc2ccccc12,–,inactive: 4.44%
COc1cc(OC)cc(C2=Cc3ccc(OC)cc3C(CC(C)=O)N2c2ccc(C#CC3(O)CCCCC3)cc2)c1 (stereo not drawn),–,inactive: 6.2%
N#Cc1nc(COc2cccc(Cl)c2)oc1NCCc1ccccc1,–,inactive: 7.4%
COC(=O)c1sccc1NC(=O)Nc1cccc(F)c1,"inconclusive: 22.4 µM [activator, single point]",–
O=C(CC1CCCCC1)N1CCC(c2nc(-c3ccc(S(=O)(=O)N4CCCC4)cc3)no2)CC1,–,inactive: -0.164%
O=C(CCS(=O)(=O)c1nc(-c2cccs2)cc(C(F)(F)F)n1)Nc1cc(Br)ccc1O,"inconclusive: 3.55 µM [activator, single point]",–
Cc1nc(N2CCCCC2)c2c(C)c(C(=O)Nc3cccc(C(F)(F)F)c3)sc2n1,–,inactive: -0.705%
O=C(Nc1cc(Cl)cc(Cl)c1)c1coc(=O)c(Br)c1,"inconclusive: 25.1 µM [activator, single point]",–
CCCSc1nc(NCc2ccco2)c2c3c(sc2n1)COC(C)(C)C3,"inconclusive: 17.8 µM [activator, single point]",–
COC(=O)c1ccccc1NC(=O)c1ccco1,–,inactive: 24.4%
CN1CCc2c(sc(NC(=O)CSc3ccc(F)cc3)c2-c2nc3ccccc3s2)C1,"inconclusive: 11.2 µM [activator, partial curve]",–
O=c1oc2ccccc2cc1-c1csc(Nc2ccc(O)cc2)n1,"inconclusive: 2.82 µM [activator, full curve, poor fit]",–
Cc1cc(C)nc(S/C=C/C(=O)c2ccccc2F)n1,"inconclusive: 3.98 µM [activator, single point]",–
CC(=O)C1=CCC(c2cccc3ccccc23)N(S(=O)(=O)c2ccc(C)cc2)C1 (stereo not drawn),–,inactive: 0.419%
C=CCn1c(=N)n(CC(=O)c2cccc([N+](=O)[O-])c2)c2ccccc21,"inconclusive: 2.82 µM [activator, full curve, poor fit]",–
